Source: the supplement of paper PMC4604168 (melanoma cell lines)
The list shows a part of the results. Many values rest on one well or one pass, so single values are uncertain.
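Note: cells treated in 1,536-well plates, then fixed and DAPI-stained, with nuclei counted from automated high-throughput microscope images.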

These compounds were tested on UACC257 (assay: cell count relative to DMSO control; melanoma cells; higher = more viable cells). Conditions: library dose: standard library concentration; 72 h.
`CCN(CC)CCNC(=O)c1c(C)[nH]c(/C=C2\C(=O)Nc3ccc(F)cc32)c1C` [sunitinib] + CCCCCCCCCCCC1=C(O)C(=O)C=C(O)C1=O [Embelin] (first compound 2 µM, partner dose 6 µM) gave a cell count of 87.7%.
`C[C@]1(O)C[C@@H](c2nc(-c3ccc4ccc(-c5ccccc5)nc4c3)c3c(N)nccn32)C1` + O=C(Nc1ccccc1)c1cc([N+](=O)[O-])ccc1Cl [GW9662] (first compound 2 µM, partner dose 10 µM) gave a cell count of 66.4%.
In the case of `COc1cc([C@@H]2c3cc4c(cc3[C@@H](O[C@@H]3O[C@@H]5CO[C@@H](C)O[C@H]5[C@H](O)[C@H]3O)[C@H]3COC(=O)[C@H]23)OCO4)cc(OC)c1O` [etoposide] + CCc1ccc(CCOc2ccc(CC3SC(=O)NC3=O)cc2)nc1 [pioglitazone] (first compound 0.1 µM, partner dose 10 µM), the cell count was 92.8%.
`C[C@]1(O)C[C@@H](c2nc(-c3ccc4ccc(-c5ccccc5)nc4c3)c3c(N)nccn32)C1` + O=c1cc(-c2cccc3c2Sc2ccccc2S3)oc(N2CCOCC2)c1 [KU55933] (first compound 2 µM, partner dose 5 µM) showed a cell count of 82.6%.
`C[C@]1(O)C[C@@H](c2nc(-c3ccc4ccc(-c5ccccc5)nc4c3)c3c(N)nccn32)C1` + O=C1NC(=O)/C(=C/c2ccc(-c3ccc(F)cc3O)o2)S1 [AS252424] (first compound 2 µM, partner dose 5 µM) gave a cell count of 110%.
`Cn1cnc2c(F)c(Nc3ccc(Br)cc3Cl)c(C(=O)NOCCO)cc21` [selumetinib] + CCCCCCCCCCCC1=C(O)C(=O)C=C(O)C1=O [Embelin] (first compound 0.075 µM, partner dose 6 µM) showed a cell count of 89.7%.
For `CCN(CC)CCNC(=O)c1c(C)[nH]c(/C=C2\C(=O)Nc3ccc(F)cc32)c1C` [sunitinib] + O=C(O)C(=O)Nc1sc2c(c1C(=O)O)CCNC2 [TCS401] (first compound 2 µM, partner dose 8.33333 µM), the cell count was 72.8%.
Work on `C[C@]1(O)C[C@@H](c2nc(-c3ccc4ccc(-c5ccccc5)nc4c3)c3c(N)nccn32)C1` + Oc1cc(-c2nc(-c3ccccc3)[nH]c2-c2ccncc2)ccc1Cl [L779450] (first compound 2 µM, partner dose 1 µM) yielded a cell count of 81.9%.
`COc1cc([C@@H]2c3cc4c(cc3[C@@H](O[C@@H]3O[C@@H]5CO[C@@H](C)O[C@H]5[C@H](O)[C@H]3O)[C@H]3COC(=O)[C@H]23)OCO4)cc(OC)c1O` [etoposide] + COC(=O)c1sccc1S(=O)(=O)Nc1ccc(Nc2ccccc2)cc1OC [GSK0660] (first compound 0.1 µM, partner dose 5 µM) was tested, and the cell count was 81.5%.
